# Measured values taken from paper PMC4336329 (PLoS ONE, 2015).
# Screen size: about 310,000 compounds; about 14,000 (4.5%) showed an effect of 50% or more. Effects have a minus sign here. This is one part of the list.
# Target: human ether-à-go-go-related gene (hERG) potassium channel (human, UniProt Q12809)
# Assay: primary screen, population patch clamp on CHO cells stably expressing hERG
# 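Note: peak tail current of the secondary pulse compared with the same well before compound.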
# Sequence of human ether-à-go-go-related gene (hERG) potassium channel (Q12809 whole entry, looked up): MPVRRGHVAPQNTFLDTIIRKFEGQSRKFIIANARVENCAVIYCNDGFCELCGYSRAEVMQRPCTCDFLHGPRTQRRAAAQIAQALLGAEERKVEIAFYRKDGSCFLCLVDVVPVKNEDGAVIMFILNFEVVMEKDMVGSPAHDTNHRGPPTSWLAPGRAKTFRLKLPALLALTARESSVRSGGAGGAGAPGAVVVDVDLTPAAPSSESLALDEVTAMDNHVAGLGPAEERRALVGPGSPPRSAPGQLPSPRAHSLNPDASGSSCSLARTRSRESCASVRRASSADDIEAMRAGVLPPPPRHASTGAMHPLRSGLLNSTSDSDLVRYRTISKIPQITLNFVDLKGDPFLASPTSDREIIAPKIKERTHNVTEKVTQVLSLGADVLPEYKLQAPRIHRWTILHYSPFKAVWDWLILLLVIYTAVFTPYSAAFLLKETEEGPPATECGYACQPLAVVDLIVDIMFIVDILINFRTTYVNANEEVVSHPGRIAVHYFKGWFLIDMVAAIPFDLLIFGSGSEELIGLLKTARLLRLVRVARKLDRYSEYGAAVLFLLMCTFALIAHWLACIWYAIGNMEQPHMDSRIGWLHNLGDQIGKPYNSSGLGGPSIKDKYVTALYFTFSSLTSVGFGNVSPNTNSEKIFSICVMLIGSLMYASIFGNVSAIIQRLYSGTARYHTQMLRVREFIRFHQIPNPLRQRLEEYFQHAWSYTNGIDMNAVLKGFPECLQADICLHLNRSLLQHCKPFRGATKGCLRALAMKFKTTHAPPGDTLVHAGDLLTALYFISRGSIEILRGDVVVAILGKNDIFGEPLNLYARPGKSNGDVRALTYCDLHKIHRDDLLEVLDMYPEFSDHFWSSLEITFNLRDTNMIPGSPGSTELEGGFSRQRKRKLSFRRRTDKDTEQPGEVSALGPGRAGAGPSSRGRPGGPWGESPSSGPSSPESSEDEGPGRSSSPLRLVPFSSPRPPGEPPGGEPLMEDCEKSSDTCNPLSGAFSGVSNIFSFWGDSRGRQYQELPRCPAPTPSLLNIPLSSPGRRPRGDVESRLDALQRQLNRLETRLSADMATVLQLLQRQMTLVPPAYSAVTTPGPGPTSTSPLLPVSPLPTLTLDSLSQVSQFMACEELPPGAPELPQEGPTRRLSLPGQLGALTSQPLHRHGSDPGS
row,SMILES,"hERG current change (%, negative = inhibition) at 10uM [%]"
1,O=C(Nc1ccccc1Cl)C1CCCN(S(=O)(=O)c2cccc3cccnc23)C1 (stereo not shown),-3.2
2,CC(C)N(CCCNC(=O)Cn1c(=O)c2cccn2c2ccc(F)cc21)Cc1ccccc1,-44
3,COC(=O)c1sc(NC(=O)c2cnccn2)c(C(=O)OC)c1C,18.7
4,Cc1cc(C)nc(Nc2n[nH]c(-c3ccccc3N)n2)n1,17.5
5,CC(=O)c1cc(F)c(N2CCCCCC2)cc1C,3.25
6,Cc1ccc(-c2nnc(Nc3ccc(CC(N)=O)cc3)c3ccccc23)cc1,-4.35
7,O=C(N/N=C/C(Br)=C/c1ccccc1)c1ccncc1,0.715
8,CCc1nnc2c3cnn(-c4ccccc4)c3ncn12,3.01
9,CC12CCC(c3c(C(=O)O)nn(-c4ccccc4)c31)C2(C)C (stereo not shown),0.338
10,O=C(Nc1ccc(Cl)cc1)N1CCCC(Cn2cccc2)C1 (stereo not shown),3.58
11,C=CCSc1nc2c(cc1C#N)CCC2,-9.95
12,Cc1c(C)n(C)c2ccc(C(=O)NCCCN3CCOCC3)cc12,10.8
13,CC/C([O-])=N\S(=O)(=O)c1ccc(N=NN(C)C)cc1.[K+],0.502
14,Cc1ccc(NC(=O)O/N=C/c2cccc([N+](=O)[O-])c2)cc1,-15.8
15,CCc1ccc(NC(=O)/C(C#N)=C/c2cn(CC(=O)O)c3ccccc23)cc1,11.6
16,CCN1CCN(c2c(S(=O)(=O)c3ccc(C)c(C)c3)cnc3ccc(F)cc23)CC1,-53.4
17,O=C(Nc1ccc(F)c(Cl)c1)C1CCN(c2ncnc3c2nc2n3CCCCC2)CC1,-31.7
18,COc1ccc(CCNC(=O)COc2ncnc3cc([N+](=O)[O-])ccc23)cc1,-16.5
19,CC(C)Oc1ccc(C(=O)NC(=S)Nc2ccc(CN3CCOCC3)cc2)cc1,-8.75
20,O=C(COc1ccccc1)Nc1sc2c(c1C(=O)NCc1cccnc1)CCCC2,-5.27
21,CC(=O)Nc1ccc(OC(F)(F)C(F)F)c(NC(C)=O)c1,15.3
22,Cc1ccn2c(Nc3ccc4c(c3)OCO4)c(-c3ccccn3)nc2c1,-67.4
23,O=C(CCNC(=O)c1ccco1)Nc1ccc(C(F)(F)F)cc1,11.5
24,O=c1c2ccccc2nc(-c2ccccc2Cl)n1-c1cccc(O)c1,2.55
25,Cc1cc(SCNC(=O)c2ccccc2)ncn1,11.5
26,O=C(CS(=O)(=O)c1cn(Cc2ccc(Cl)cc2)c2ccccc12)N1CCCCC1,14.5
27,O=C(NCc1ccco1)C1CCCN(S(=O)(=O)c2ccc(Cl)cc2)C1 (stereo not shown),-13.2
28,O=C(Cn1nc(Cc2ccncc2)c2ccccc2c1=O)N1CCN(C(=O)c2ccco2)CC1,-26.7

row,SMILES,"hERG current change (%, negative = inhibition) at 10uM [%]"
1,COc1ccc(OC)c(C(=O)c2coc3ccc(O)c(CN(C)C)c23)c1.Cl,-12.7
2,CN(C(=O)COC(=O)c1ccc2c(c1)OCCO2)c1ccccc1,5.16
3,O=C(CSc1nnc(Cn2cnc3ccccc32)o1)c1ccccc1,-7.21
4,COCC(=O)Nc1ccc(S(=O)(=O)Nc2ccccn2)cc1,17.8
5,CCn1c(SCC(=O)Nc2ccc(OC)cc2OC)nc2nc3c(cc2c1=O)COC(C)(C)C3,-2.49
6,COc1ccc(CCNC(=O)c2cc3c(F)cccc3s2)cc1OC,-23.9
7,O=C(NCC1CCN(Cc2ccccc2F)CC1)Nc1cc(F)ccc1F,-59.9
8,CCOC(=O)c1cccc(NC(=O)CCS(=O)(=O)c2cccs2)c1,-4.36
9,Cc1cc(N2C(=O)C(O)=C(C(=O)c3cc4ccccc4o3)C2c2ccc(Cl)cc2)no1 (stereo not shown),-32.7
10,Cc1ccc2c(c1)C(=C(C#N)C#N)C(=O)N2CCN1CCCCC1,-16.2
11,CCOCCCNC(=O)C(c1ccc(OC)cc1)N(Cc1ccc2c(c1)OCO2)C(=O)CNC(C)=O (stereo not shown),15.3
12,Cc1ccc(NC(=O)CCc2nnc3ccc(N4CCN(C)CC4)nn23)cc1F,-44.7
13,COc1ccc(CCNC(=O)CSc2cc(=O)[nH]c(N)n2)cc1OC,4.58
14,COc1ccc2[nH]cc(CC(=O)O)c2c1,6.94
15,COc1cc2ccc(=O)oc2cc1O,12
16,Cc1ccc(-n2cc(CN3CCN(Cc4nccn4C)CC3)c(-c3ccc(F)cc3)n2)cc1,-26.8
17,CCC(c1nnnn1C1CCCC1)N1CCN(c2ccccc2)CC1 (stereo not shown),-11.7
18,O=C(NC1CCCC1)C(c1cccs1)N(CC1CCCO1)C(=O)Cc1cccs1 (stereo not shown),-7.64
19,COc1ccc(NC(=O)CN2CCN(c3ccc(C)cc3C)CC2)cc1,-60.7
20,CC(=O)C1=C(C)NC(=O)NC1c1ccc(Cl)cc1 (stereo not shown),4.06
21,Cc1cccnc1NC(=O)c1cccc(NC(=O)CC2SC(N3CCCCC3)=NC2=O)c1 (stereo not shown),12.6
22,Cc1ccc2[nH]c3c(=O)n(N)c(C)nc3c2c1,15.7
23,CC(C)NC(=S)NNc1ncnc2sc3c(c12)CC(C)(C)OC3,8.65
24,CC(C)(C)OC(=O)NC(CO)c1cn([C@@H](Cc2cc3ccccc3[nH]2)C(=O)N2CCN(C(=O)OC(C)(C)C)CC2)nn1 (stereo partly shown),2.26
25,COC(=O)c1cccc(NC(=O)C(C)N2C(=O)c3ccccc3C2=O)c1 (stereo not shown),-1.39
26,COC(=O)C1=C(c2ccc(Cl)c(C(F)(F)F)c2)C[C@@H]2CC[C@H]1N2C(=O)NC(C)C,-13.9
27,Cn1c(C(=O)N2CCCC(C(=O)NCCN3CCOCC3)C2)cc2sccc21 (stereo not shown),3.34
